Screen size: about 410,000 compounds; about 530 (0.13%) were called active. This list was built around the results that the source calls inconclusive (neither active nor inactive); the mix of calls is not that of the screen. The call rests on the fitted dose curve; in most records, active means well fitted inhibition curve with a large enough effect; inconclusive means small, poorly fitted or top-dose-only effect, or another doubt; inactive means no such curve, though single readings can be large or run the other way. A potency beside an inconclusive call is a rough fit, not a confirmed value.
Experiment: qHTS of GLP-1 Receptor Inverse Agonists: Cytotox Screen
Details: HEK293 cAMP-luciferase reporter cells, luminescence, 24 h; series mostly up to 38.3 µM
Outline: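 Cells in DMEM/10% Nu serum/1% pen-strep, 1536-well format. Pre-incubated 12 h, dosed with 23 nL compound, incubated a further 24 h. Luciferase detection, 12 min at room temp, luminescence.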
In the case of `Cc1cc(Br)ccc1NC(=S)Nc1cccc([N+](=O)[O-])c1`, the Potency was inconclusive: 11.2 µM [inhibitor, partial curve, poor fit]. In the case of `CCCc1nc2ccccc2c(=O)n1-c1ccc(O)cc1`, the Potency was “inactive”. For `Oc1c(Cl)cc(Cl)cc1CN1CCN(Cc2ccccc2)CC1`, the Potency was “inactive”. With `Nc1c2c(nc3sc4c(c13)CCCCC4)CCCC2` the Potency was inconclusive: 28.2 µM [inhibitor, single point]. With `CCc1nc(N2CCN(C(=O)c3ccco3)CC2)c2oc3ccccc3c2n1` the Potency was inconclusive: 14.1 µM [inhibitor, single point]. In the case of `COC(=O)C1=C(C(=O)OC)C2OC1c1cc3ccccc3cc12`, the Potency was inconclusive: 14.1 µM [inhibitor, single point]. In the case of `Cc1cccc(Cn2c(C)c(C)c3cc(C(=O)NCc4ccco4)ccc32)c1`, the Potency was inconclusive: 10 µM [inhibitor, partial curve]. With `Cc1ccc(NC(=O)C2CCCN2S(=O)(=O)c2ccc3nc(-c4ccccc4)[nH]c3c2)cc1F` (stereo not drawn) the Potency was inconclusive: 28.2 µM [inhibitor, single point]. With `CCCCc1ccc2[nH]cc(CCN)c2c1` the Potency was inconclusive: 28.2 µM [inhibitor, single point]. For `Cc1ccc(-n2nnnc2Sc2nc([N+](=O)[O-])nn2C)cc1`, the Potency was inconclusive: 10 µM [inhibitor, partial curve, poor fit]. With `CCCCOc1ccc(C(C)=O)cc1Cc1c(O)[nH]c(=S)[nH]c1=O` the Potency was “inactive”. For `Cc1ccccc1C(CC(=O)c1cccs1)C(C#N)C#N` (stereo not drawn), the Potency was inconclusive: 28.2 µM [inhibitor, single point]. For `O=C(N/N=C/c1c(O)n(C2CCCCC2)c(=S)[nH]c1=O)c1ccccc1O`, the Potency was “inactive”. For `Cc1sc2ncnc(N3CCC(C(=O)N(C)CC(=O)Nc4ccccc4Cl)CC3)c2c1C`, the Potency was inconclusive: 22.4 µM [inhibitor, single point]. For `C=CCn1c(O)c(/C=C2/C=CC=N2)c(=O)[nH]c1=O`, the Potency was inconclusive: 20 µM [inhibitor, partial curve, poor fit]. With `Cc1cc2ccccn2c1C(C[N+](=O)[O-])c1c(F)cccc1Cl` (stereo not drawn) the Potency was inconclusive: 7.94 µM [inhibitor, partial curve, poor fit]. For `CC(CN1CCOCC1)C(C#N)(c1ccccc1)c1ccccc1` (stereo not drawn), the Potency was “inactive”. In the case of `O=C1CC(c2cccnc2)=NN1c1ccccc1`, the Potency was “inactive”. For `CCN(CC)CCNCC1C(=O)O[C@@H]2C[C@@]3(C)CCC[C@H](C)C3=C[C@H]12` (stereo partly drawn), the Potency was inconclusive: 10 µM [inhibitor, single point]. For `O=C(NCC1=C(c2cccc3ccccc23)C[C@@H]2CC[C@H]1N2Cc1ccco1)c1cccs1`, the Potency was inconclusive: 14.1 µM [inhibitor, single point]. For `Cc1cccc(NC(=O)Oc2ccc(Cl)c3cccnc23)c1`, the Potency was inconclusive: 12.6 µM [inhibitor, partial curve, poor fit]. For `Cc1ccc2c(=O)n3c(nc2c1)C(Cc1ccc(O)cc1)NC(=O)c1cc2ccccc2cc1-3` (stereo not drawn), the Potency was inconclusive: 3.98 µM [inhibitor, full curve]. With `Cn1cnc([N+](=O)[O-])c1Sc1ccc([N+](=O)[O-])cc1` the Potency was inconclusive: 14.1 µM [inhibitor, single point]. With `OCCN1CCN(CCCN2c3ccccc3Sc3ccc(C(F)(F)F)cc32)CC1` the Potency was inconclusive: 14.1 µM [inhibitor, single point]. For `CCCCCN1C(=O)c2cc(OC)ccc2[C@@]2(C(=O)OCC)Cc3cc(Cl)ccc3[C@@H]12`, the Potency was inconclusive: 11.2 µM [inhibitor, partial curve, poor fit]. With `CCOc1cc(/C=C2\SC(=S)N(C(C(=O)O)c3ccccc3)C2=O)ccc1O` (stereo not drawn) the Potency was inconclusive: 10 µM [inhibitor, single point]. For `O=c1cc(C(F)(F)F)[nH]c2ccc(C(F)(F)F)cc12`, the Potency was inconclusive: 28.2 µM [inhibitor, single point]. With `Brc1ccccc1-c1nnc2sc(-c3ccc4c(c3)OCCO4)nn12` the Potency was inconclusive: 12.6 µM [inhibitor, single point]. With `FC(F)(F)c1ccccc1CNCCc1c[nH]c2ccccc12` the Potency was “inactive”. In the case of `CN1CCN(c2cc(N3CCNCC3)ccc2[N+](=O)[O-])CC1`, the Potency was inconclusive: 3.98 µM [inhibitor, partial curve, poor fit]. In the case of `CC/C(=C\C=C\[C@@H]1C=C[C@@H]2CCC[C@H]2[C@@H]1C(=O)c1ccc[nH]1)[C@@H]1O[C@@H]([C@@H](C)C(=O)O)CC[C@@H]1C`, the Potency was inconclusive: 10 µM [inhibitor, partial curve]. In the case of `CC(Cc1ccccc1)NCCC(c1ccccc1)c1ccccc1` (stereo not drawn), the Potency was inconclusive: 28.2 µM [inhibitor, single point]. For `O=[N+]([O-])c1cc(-c2nnc(Nc3ccccc3)c3ccccc23)ccc1N1CCOCC1`, the Potency was inconclusive: 10 µM [inhibitor, single point]. With `O=C(NCc1cccnc1)/C(=C\c1ccc(-c2ccc(Br)cc2)o1)S(=O)(=O)c1ccccc1` the Potency was inconclusive: 28.2 µM [inhibitor, single point]. With `CCOc1cc(CNCCO)cc(Br)c1OCc1ccc(Cl)cc1Cl` the Potency was inconclusive: 12.6 µM [inhibitor, partial curve]. In the case of `CCOC(=O)[C@]12Cc3cc(Cl)ccc3[C@H]1N(C1CCCCC1)C(=O)c1ccccc12`, the Potency was inconclusive: 10 µM [inhibitor, partial curve]. With `CCC(C)NC(=O)CCC(=O)OC1O[C@H]2OC3(C)CC[C@H]4[C@H](C)CCC(C1C)C24OO3` (stereo partly drawn) the Potency was inconclusive: 11.2 µM [inhibitor, partial curve]. For `O=C(/C=C/c1ccc(Br)cc1)c1ccc(NC2=NCCCS2)cc1`, the Potency was inconclusive: 15.8 µM [inhibitor, single point]. In the case of `O=C(NC1CN2CCC1CC2)c1cc(Cl)c([N+](=O)[O-])c2nc[nH]c12` (stereo not drawn), the Potency was inconclusive: 10 µM [inhibitor, single point]. For `NS(=O)(=O)c1cccc(N2CCNCC2)c1`, the Potency was “inactive”. With `O=C(Nc1ccc2nn(-c3ccccc3)nc2c1)c1ccc2c(c1)OCCO2` the Potency was inconclusive: 25.1 µM [inhibitor, single point]. With `N=c1c2c(-c3ccccc3)c(-c3ccccc3)n(Cc3ccco3)c2ncn1CCCN1CCOCC1` the Potency was inconclusive: 11.2 µM [inhibitor, single point]. In the case of `O=c1cc(CSc2ccc(Cl)cc2)nc(-c2ccccn2)[nH]1`, the Potency was inconclusive: 2.82 µM [inhibitor, full curve]. In the case of `Cc1ccc(Nc2nc3ccccc3[nH]2)nc1`, the Potency was inconclusive: 28.2 µM [inhibitor, single point]. For `O=C1NC(=O)N(c2ccccc2)C(=O)/C1=C\c1ccc([N+](=O)[O-])s1`, the Potency was “inactive”. With `CCN1CCN(c2cc(N3CCCC3)c([N+](=O)[O-])cc2F)CC1` the Potency was inconclusive: 14.1 µM [inhibitor, single point]. In the case of `COc1ccccc1CNc1nc(NCc2ccccc2OC)c2sccc2n1`, the Potency was inconclusive: 11.2 µM [inhibitor, single point]. In the case of `CCCCC[C@@H](/C=C/C1C(=O)C=C[C@H]1C/C=C\CCCC(=O)OC)OC(C)=O` (stereo partly drawn), the Potency was inconclusive: 28.2 µM [inhibitor, single point]. In the case of `COc1cccc(C(=O)Oc2c(Sc3ccc(C)cc3)c(C)nn2C(C)(C)C)c1OC`, the Potency was inconclusive: 12.6 µM [inhibitor, partial curve, poor fit]. In the case of `c1ccc(CNc2c3c(nc4ccccc24)CCC3)cc1`, the Potency was inconclusive: 14.1 µM [inhibitor, single point]. For `CN1C(=O)C(=Cc2ccccc2OCc2ccc(C(=O)O)cc2)C(=O)N(C)C1=O`, the Potency was “inactive”. For `O=C(c1ccc(N2CC3CC(C2)c2cccc(=O)n2C3)c([N+](=O)[O-])c1)N1CCCCC1` (stereo not drawn), the Potency was inconclusive: 22.4 µM [inhibitor, single point]. With `O=[N+]([O-])c1ccc(NS(=O)(=O)c2ccccc2)c(Cl)c1` the Potency was inconclusive: 11.2 µM [inhibitor, partial curve]. In the case of `CCC(C)NCCOc1ccc(C(C)(C)c2ccccc2)cc1` (stereo not drawn), the Potency was inconclusive: 28.2 µM [inhibitor, single point]. In the case of `COc1cccc(NP(=O)(Oc2ccc(Cl)cc2)Oc2ccc(Cl)cc2)c1`, the Potency was inconclusive: 15.8 µM [inhibitor, partial curve, poor fit]. With `CN1CCC(c2c[nH]c3ccccc23)C1` (stereo not drawn) the Potency was “inactive”. In the case of `Cc1cccc(C)c1NC1=NCCCS1`, the Potency was “inactive”. In the case of `C=C1C(C)C2C(Cc3ccccc3)NC(=O)C23OC(=O)/C=C/C(O)CCCC(C)C/C=C/C3C1O` (stereo not drawn), the Potency was inconclusive: 3.98 µM [inhibitor, full curve]. For `COc1cc(/C=C2/C(=O)NC(=O)N(c3ccc(C)cc3)C2=O)cc(OC)c1OC`, the Potency was inconclusive: 10 µM [inhibitor, single point]. For `O=c1[nH]c2ccccc2n1C1CCN(C(c2nnnn2-c2ccc3c(c2)OCCO3)C2CC2)CC1` (stereo not drawn), the Potency was inconclusive: 10 µM [inhibitor, partial curve, poor fit]. In the case of `Cc1ccc(NC(=O)CN(C)C(=O)Cn2ncc(Cl)c(Cl)c2=O)cc1`, the Potency was inconclusive: 28.2 µM [inhibitor, single point]. For `C[C@]12CC[C@H](N)CC1=CCC1C2CC[C@@]2(C)C1CC[C@@H]2O` (stereo partly drawn), the Potency was inconclusive: 28.2 µM [inhibitor, single point]. For `CCOC(=O)[C@]12Cc3cc(C)ccc3[C@H]1N(CCC(=O)OC)C(=O)c1ccccc12`, the Potency was inconclusive: 28.2 µM [inhibitor, partial curve, poor fit].
Potency means the concentration at half of the fitted maximal effect.
